{"source": "the supplement of paper PMC8728848", "test_in_all_cases": "glycan array binding signal (z-score within array); higher = stronger binding", "details_in_all_cases": "glycan notation: IUPAC condensed, linker removed", "key": {"[1]": {"molecular_target": "Gal(b1-4)GlcNAc(b1-3)Gal(b1-4)GlcNAc(b1-3)[Gal(b1-4)GlcNAc(b1-3)Gal(b1-4)GlcNAc(b1-6)]GalNAc", "how_it_was_run": "(§1)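 Arrays were curated from the Consortium for Functional Glycomics database, 3228 in total, and kept only where the protein sequence was available. Binding is expressed as a within-array Z-score. This score was averaged across arrays of the same protein sequence at different concentrations or buffers and across linkers, and negative values can be read as non-binding.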"}, "[2]": {"molecular_target": "Gal(b1-4)GlcNAc(b1-3)Gal(b1-4)GlcNAc(b1-6)[Gal(b1-3)]GalNAc", "how_it_was_run": "as §1"}, "[3]": {"molecular_target": "Gal(b1-4)GlcNAc(b1-3)Gal(b1-4)[Fuc(a1-3)]GlcNAc(b1-3)Gal(b1-4)[Fuc(a1-3)]GlcNAc", "how_it_was_run": "as §1"}, "[4]": {"molecular_target": "Gal(b1-4)GlcNAc(b1-3)GalNAc", "how_it_was_run": "as §1"}, "[5]": {"molecular_target": "Gal(b1-4)GlcNAc(b1-3)[Fuc(a1-3)GlcNAc(b1-6)]Gal(b1-4)Glc", "how_it_was_run": "as §1"}, "[6]": {"molecular_target": "Gal(b1-4)GlcNAc(b1-3)[Gal(b1-4)GlcNAc(b1-6)]Gal(b1-4)GlcNAc", "how_it_was_run": "as §1"}, "[7]": {"molecular_target": "Gal(b1-4)GlcNAc(b1-3)[GlcNAc(b1-6)]Gal(b1-4)GlcNAc", "how_it_was_run": "as §1"}, "[8]": {"molecular_target": "Gal(b1-4)GlcNAc(b1-6)Gal(b1-4)GlcNAc", "how_it_was_run": "as §1"}, "[9]": {"molecular_target": "Gal(b1-4)GlcNAc(b1-6)GalNAc", "how_it_was_run": "as §1"}, "[10]": {"molecular_target": "Gal(b1-4)GlcNAc(b1-6)[Gal(b1-3)]GalNAc", "how_it_was_run": "as §1"}, "[11]": {"molecular_target": "Gal(b1-4)GlcNAc(b1-6)[Gal(b1-4)GlcNAc(b1-3)]GalNAc", "how_it_was_run": "as §1"}, "[12]": {"molecular_target": "Gal(b1-4)GlcNAc6P", "how_it_was_run": "as §1"}, "[13]": {"molecular_target": "Gal(b1-6)Gal", "how_it_was_run": "as §1"}, "[14]": {"molecular_target": "Gal3S(b1-3)GalNAc", "how_it_was_run": "as §1"}, "[15]": {"molecular_target": "Gal3S(b1-3)GlcNAc", "how_it_was_run": "as §1"}, "[16]": {"molecular_target": "Gal3S(b1-3)[Fuc(a1-4)]GlcNAc", "how_it_was_run": "as §1"}, "[17]": {"molecular_target": "Gal3S(b1-4)Glc", "how_it_was_run": "as §1"}, "[18]": {"molecular_target": "Gal3S(b1-4)Glc6S", "how_it_was_run": "as §1"}, "[19]": {"molecular_target": "Gal3S(b1-4)GlcNAc", "how_it_was_run": "as §1"}, "[20]": {"molecular_target": "Gal3S(b1-4)[Fuc(a1-3)]Glc6S", "how_it_was_run": "as §1"}, "[21]": {"molecular_target": "Gal3S(b1-4)[Fuc(a1-3)]GlcNAc", "how_it_was_run": "as §1"}, "[22]": {"molecular_target": "Gal3S(b1-4)[Fuc(a1-3)]GlcNAc6S", "how_it_was_run": "as §1"}, "[23]": {"molecular_target": "Gal3S4S(b1-4)GlcNAc", "how_it_was_run": "as §1"}, "[24]": {"molecular_target": "Gal3S6S(b1-4)GlcNAc", "how_it_was_run": "as §1"}, "[25]": {"molecular_target": "Gal3S6S(b1-4)GlcNAc6S", "how_it_was_run": "as §1"}, "[26]": {"molecular_target": "Gal4S(b1-4)GlcNAc", "how_it_was_run": "as §1"}, "[27]": {"molecular_target": "Gal4S6S(b1-4)GlcNAc", "how_it_was_run": "as §1"}, "[28]": {"molecular_target": "Gal6P(b1-4)GlcNAc", "how_it_was_run": "as §1"}, "[29]": {"molecular_target": "Gal6S(b1-3)GlcNAc", "how_it_was_run": "as §1"}, "[30]": {"molecular_target": "Gal6S(b1-3)GlcNAc6S", "how_it_was_run": "as §1"}, "[31]": {"molecular_target": "Gal6S(b1-4)Glc", "how_it_was_run": "as §1"}, "[32]": {"molecular_target": "Gal6S(b1-4)Glc6S", "how_it_was_run": "as §1"}, "[33]": {"molecular_target": "Gal6S(b1-4)GlcNAc", "how_it_was_run": "as §1"}, "[34]": {"molecular_target": "Gal6S(b1-4)GlcNAc6S", "how_it_was_run": "as §1"}, "[35]": {"molecular_target": "GalNAc(a1-3)Gal", "how_it_was_run": "as §1"}, "[36]": {"molecular_target": "GalNAc(a1-3)GalNAc", "how_it_was_run": "as §1"}, "[37]": {"molecular_target": "GalNAc(a1-3)GalNAc(b1-3)Gal(a1-4)Gal(b1-4)Glc", "how_it_was_run": "as §1"}, "[38]": {"molecular_target": "GalNAc(a1-3)GalNAc(b1-3)Gal(a1-4)Gal(b1-4)GlcNAc", "how_it_was_run": "as §1"}, "[39]": {"molecular_target": "GalNAc(b1-3)Gal", "how_it_was_run": "as §1"}, "[40]": {"molecular_target": "GalNAc(b1-3)Gal(a1-4)Gal(b1-4)GlcNAc", "how_it_was_run": "as §1"}, "[41]": {"molecular_target": "GalNAc(b1-3)Gal(a1-4)Gal(b1-4)GlcNAc(b1-3)Gal(b1-4)Glc", "how_it_was_run": "as §1"}, "[42]": {"molecular_target": "GalNAc(b1-3)Gal(a1-6)Gal(b1-4)Glc", "how_it_was_run": "as §1"}, "[43]": {"molecular_target": "GalNAc(b1-3)GalNAc", "how_it_was_run": "as §1"}, "[44]": {"molecular_target": "GalNAc(b1-3)GlcNAc", "how_it_was_run": "as §1"}, "[45]": {"molecular_target": "GalNAc(b1-4)Gal(b1-4)Glc", "how_it_was_run": "as §1"}}, "note": "The list shows a part of the results.", "data": [{"binder": "CpGal16 (Clavelina picta) (protein) MAKMITNYVGKRIECIMVATDMMSTVFSLASATGDLPFYINFRQRENSIVMNTRVHGKWQYEKSQSSGGMNFYEPFRLVVEVRPSVFKVTVSTMGEEDGITFNLQYSQITIKPDEIVAMHLGYCNLRSELLVTDL", "values": [{"measurement": "glycan array binding signal (z-score)", "setting": "[1]", "result": 0.123}, {"measurement": "glycan array binding signal (z-score)", "setting": "[2]", "result": -0.075}, {"measurement": "glycan array binding signal (z-score)", "setting": "[3]", "result": -0.371}, {"measurement": "glycan array binding signal (z-score)", "setting": "[4]", "result": -0.46}, {"measurement": "glycan array binding signal (z-score)", "setting": "[5]", "result": -0.452}, {"measurement": "glycan array binding signal (z-score)", "setting": "[6]", "result": 0.218}, {"measurement": "glycan array binding signal (z-score)", "setting": "[7]", "result": -0.287}, {"measurement": "glycan array binding signal (z-score)", "setting": "[8]", "result": -0.331}, {"measurement": "glycan array binding signal (z-score)", "setting": "[9]", "result": -0.189}, {"measurement": "glycan array binding signal (z-score)", "setting": "[10]", "result": -0.295}, {"measurement": "glycan array binding signal (z-score)", "setting": "[11]", "result": -0.331}, {"measurement": "glycan array binding signal (z-score)", "setting": "[12]", "result": -0.325}, {"measurement": "glycan array binding signal (z-score)", "setting": "[13]", "result": -0.407}, {"measurement": "glycan array binding signal (z-score)", "setting": "[14]", "result": -0.223}, {"measurement": "glycan array binding signal (z-score)", "setting": "[15]", "result": 0.11}, {"measurement": "glycan array binding signal (z-score)", "setting": "[16]", "result": -0.266}, {"measurement": "glycan array binding signal (z-score)", "setting": "[17]", "result": -0.148}, {"measurement": "glycan array binding signal (z-score)", "setting": "[18]", "result": 0.297}, {"measurement": "glycan array binding signal (z-score)", "setting": "[19]", "result": -0.199}, {"measurement": "glycan array binding signal (z-score)", "setting": "[20]", "result": 0.049}, {"measurement": "glycan array binding signal (z-score)", "setting": "[21]", "result": -0.279}, {"measurement": "glycan array binding signal (z-score)", "setting": "[22]", "result": -0.248}, {"measurement": "glycan array binding signal (z-score)", "setting": "[23]", "result": -0.392}, {"measurement": "glycan array binding signal (z-score)", "setting": "[24]", "result": -0.128}, {"measurement": "glycan array binding signal (z-score)", "setting": "[25]", "result": -0.138}, {"measurement": "glycan array binding signal (z-score)", "setting": "[26]", "result": -0.386}, {"measurement": "glycan array binding signal (z-score)", "setting": "[27]", "result": -0.338}, {"measurement": "glycan array binding signal (z-score)", "setting": "[28]", "result": -0.464}, {"measurement": "glycan array binding signal (z-score)", "setting": "[29]", "result": -0.282}, {"measurement": "glycan array binding signal (z-score)", "setting": "[30]", "result": -0.263}, {"measurement": "glycan array binding signal (z-score)", "setting": "[31]", "result": -0.172}, {"measurement": "glycan array binding signal (z-score)", "setting": "[32]", "result": -0.12}, {"measurement": "glycan array binding signal (z-score)", "setting": "[33]", "result": -0.387}, {"measurement": "glycan array binding signal (z-score)", "setting": "[34]", "result": -0.175}, {"measurement": "glycan array binding signal (z-score)", "setting": "[35]", "result": -0.466}, {"measurement": "glycan array binding signal (z-score)", "setting": "[36]", "result": -0.444}, {"measurement": "glycan array binding signal (z-score)", "setting": "[37]", "result": -0.506}, {"measurement": "glycan array binding signal (z-score)", "setting": "[38]", "result": -0.391}, {"measurement": "glycan array binding signal (z-score)", "setting": "[39]", "result": -0.439}, {"measurement": "glycan array binding signal (z-score)", "setting": "[40]", "result": -0.065}, {"measurement": "glycan array binding signal (z-score)", "setting": "[41]", "result": -0.347}, {"measurement": "glycan array binding signal (z-score)", "setting": "[42]", "result": -0.371}, {"measurement": "glycan array binding signal (z-score)", "setting": "[43]", "result": -0.488}, {"measurement": "glycan array binding signal (z-score)", "setting": "[44]", "result": 0.462}, {"measurement": "glycan array binding signal (z-score)", "setting": "[45]", "result": -0.269}]}]}
